The source of these data is publication PMC7819943, “Rice protein-binding microarrays: a tool to detect cis-acting elements near promoter regions in rice”.

The list shows a part of the results.

The target of this test is T1, OsWOX13 (Oryza sativa, UniProt Q5QMM3 1-267).
T1 sequence: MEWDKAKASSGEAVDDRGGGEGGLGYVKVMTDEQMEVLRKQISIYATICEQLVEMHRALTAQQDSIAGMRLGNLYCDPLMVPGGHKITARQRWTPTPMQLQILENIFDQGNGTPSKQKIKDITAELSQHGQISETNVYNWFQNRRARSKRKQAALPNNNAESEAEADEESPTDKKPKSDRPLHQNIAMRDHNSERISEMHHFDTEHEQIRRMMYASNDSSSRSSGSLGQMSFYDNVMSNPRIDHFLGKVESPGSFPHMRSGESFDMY
Nature of the test: protein-binding microarray (RPBM); PBS, 2% BSA, 51.3 ng/ul salmon testes DNA, 50 uM zinc acetate, 200 nM TF, 25 C, 1 h; high values mean tight binding. The following applies: protein: recombinant; tags: N-terminal polyhistidine and DsRed monomer fusion (pET32a); label: CyDye5-dUTP incorporated in the synthesized complementary strand; 3' TTTTT single-stranded linker to array surface; dsDNA, one strand shown. The essentials:
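Per-feature fluorescence intensity (arbitrary units), read on an Axon 4000B scanner, is the binding signal. Transcription factors carrying an N-terminal polyhistidine tag and DsRed fusion were expressed in E. coli BL21-CodonPlus and purified on Ni–NTA. A custom Agilent array, made double-stranded by primer extension with Cy5-dUTP and blocked with 2% BSA, was incubated with 200 nM protein in PBS, 2% BSA, salmon testes DNA and 50 µM zinc acetate at 25 °C for 1 h and then washed.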
Regarding “GATGTGATTGGATTAATTTTCAAAAGTACTTTTATATGATCGGAGTCACCTAGTGCAG”, the binding signal was 56300 fluorescence intensity (a.u.). Take “GTTAACCAATCATATTCATGGTGGCAATGTTGGAGTGGGACGGAGTCACCTAGTGCAG”: the binding signal is 8520 fluorescence intensity (a.u.).

As for “AACTCGATTAATTTACAGCAAATGTTCAGTTCATTTGTTGCGGAGTCACCTAGTGCAG”, the binding signal is 21300 fluorescence intensity (a.u.). For the sequence “AGCAATTATCCAATAGATAAACACTACTCCGTTCGTTTATCGGAGTCACCTAGTGCAG”, the binding signal was 6010 fluorescence intensity (a.u.). The value for “TTAAAATTGCTAACATCCGTCGTGGACATCTTAACGATCGCGGAGTCACCTAGTGCAG” was 5140 fluorescence intensity (a.u.). On to “TATGATATGTCAAATCCTATAATTTCTTCGTCCCAAAATGCGGAGTCACCTAGTGCAG”, for which the binding signal was 3440 fluorescence intensity (a.u.).

With “ATATAAATATGTAATTGTATAAGCTAAGATTATATTGTAGCGGAGTCACCTAGTGCAG”, the binding signal is 6340 fluorescence intensity (a.u.). As to “TTGGACAGCAGACAGCACATAATAGATTCTGATTGAATGTCGGAGTCACCTAGTGCAG”, the binding signal was 18800 fluorescence intensity (a.u.). The value for “AATAGATTGATTGATTGATTGAATAATATAGATAGATTGACGGAGTCACCTAGTGCAG” was 64400 fluorescence intensity (a.u.); that for “TAAAATTGAATGAATCTATCATCATATGGACACATGAGGACGGAGTCACCTAGTGCAG” was 32100 fluorescence intensity (a.u.).

Regarding “TTGTCAATTTCCATCAAATCAAGAGTTATCAATACCTACCCGGAGTCACCTAGTGCAG”, the binding signal is 17000 fluorescence intensity (a.u.). As for “AAACTCAATTAATCGCACGTAAATACCACCACGTTTTACGCGGAGTCACCTAGTGCAG”, the binding signal was 10200 fluorescence intensity (a.u.). The same measure for “ATCTAATTTTACAAAATTTCAGTGGCACCCAGCCAATATCCGGAGTCACCTAGTGCAG”: 6420 fluorescence intensity (a.u.); for “ATAAATCTTGTAATTAAAGAATTTTCAGGTGTTTCAGTGACGGAGTCACCTAGTGCAG”: 6280 fluorescence intensity (a.u.); for “ACACTAACTGCCGAGATGTCGATCCCAATTCCACGTGTGGCGGAGTCACCTAGTGCAG”: 7240 fluorescence intensity (a.u.). The value for “CATGACAGATAGCACGACAGGACTACAGGAGTGCTGCAGCCGGAGTCACCTAGTGCAG” was 10400 fluorescence intensity (a.u.); that for “ACAATAATTTTCCATTACAAAGGATTGAAGAGAAACAGGACGGAGTCACCTAGTGCAG” was 17200 fluorescence intensity (a.u.). The value for “AGTAACTGGTTGATAGTCAACTTACGAGAATCTGCAAACGCGGAGTCACCTAGTGCAG” was 7820 fluorescence intensity (a.u.); that for “TTTGTTAATTAGCGGAGCCTAAGTGGAAATAAAGGCAGTACGGAGTCACCTAGTGCAG” was 18600 fluorescence intensity (a.u.). As to “CTCAATTGCTCGTCACTCGTCCCTCCACCGACACTGCTGGCGGAGTCACCTAGTGCAG”, the binding signal was 3560 fluorescence intensity (a.u.). Turning to “CCGGTTGTAATTTGTAAACTCATAATGAGATGAAAATGACCGGAGTCACCTAGTGCAG”, the binding signal is 7770 fluorescence intensity (a.u.). The same measure for “AATTAATCAGCAAGGAATGAATTAACAAACTTTTGCCATTCGGAGTCACCTAGTGCAG”: 3710 fluorescence intensity (a.u.).

On to “CAAATTGTATACTGATATAGATATGCATCCCTCCCTGCATCGGAGTCACCTAGTGCAG”, for which the binding signal is 6770 fluorescence intensity (a.u.).

“GCATGCAATTAACTATGACATCTAATCCTATTGGATGCATCGGAGTCACCTAGTGCAG”: the binding signal was 14700 fluorescence intensity (a.u.). For the sequence “AAATTAATTAATTCAACAAGAAACTAAAGCAACTTTTAAACGGAGTCACCTAGTGCAG”, the binding signal was 6050 fluorescence intensity (a.u.). The value for “GCACTAATTAACGGCTTGTAAAACGTGCTCGTAATAATTACGGAGTCACCTAGTGCAG” was 18700 fluorescence intensity (a.u.).

As for “GCTAACGAAATCGAAATGATTGGAATACTTATAAACCCTGCGGAGTCACCTAGTGCAG”, the binding signal is 27400 fluorescence intensity (a.u.). In the case of “ACGAGGTTAATTACAATTAAAATTTTATGCTAGAATAATTCGGAGTCACCTAGTGCAG”, the binding signal is 15900 fluorescence intensity (a.u.). For “GATAATAGAATTTCAGTTCAGACTAACAAATTAGGTACACCGGAGTCACCTAGTGCAG”, the binding signal was 12700 fluorescence intensity (a.u.).

With “TTCTCATTTTATTTAATTTAAAAGTAATTTATTACATGTTCGGAGTCACCTAGTGCAG”, the binding signal was 11600 fluorescence intensity (a.u.). The value for “TCTGCCAATTTGACAATTGTACTTTTATTGTGTCACTGGTCGGAGTCACCTAGTGCAG” was 5530 fluorescence intensity (a.u.).

Regarding “ACATCAATTGTAATCAAGGCATCGGAAAAGCAGGGTCCGGCGGAGTCACCTAGTGCAG”, the binding signal is 6680 fluorescence intensity (a.u.). With “CACGCAAAACAAAGTTCATTTTATTGCATGATCAATTAAGCGGAGTCACCTAGTGCAG”, the binding signal is 3990 fluorescence intensity (a.u.). The same measure for “CGAGCTAATTATCGCCATCGCCCGCCGCGATCTATATAAACGGAGTCACCTAGTGCAG”: 6060 fluorescence intensity (a.u.); for “TGTAATTGAATAGAATACAATTAGGCTAATCTTGCGATAACGGAGTCACCTAGTGCAG”: 28000 fluorescence intensity (a.u.); for “CAATTACAAATAATTAATCTTAACTACTACTCCACAGTGTCGGAGTCACCTAGTGCAG”: 9810 fluorescence intensity (a.u.). Take “ATACTTAAAATTAAATTAATATAATTTGTTTTCAGATTTTCGGAGTCACCTAGTGCAG”: the binding signal was 10500 fluorescence intensity (a.u.). With “TCACATAAGATTGGGCCTAAATTGCACAAAGTGTCGTCTCCGGAGTCACCTAGTGCAG”, the binding signal is 8200 fluorescence intensity (a.u.).

Turning to “AACTCATGATTAATTAAGTATTAACTATTTTAAATTTTAACGGAGTCACCTAGTGCAG”, the binding signal is 8380 fluorescence intensity (a.u.).

“ACCATGTGAATTTAACTGTCAAAACTCCTAACTGCAACATCGGAGTCACCTAGTGCAG”: the binding signal is 4060 fluorescence intensity (a.u.).

Consider “TGTTCAGATTGATGCCATTTCAAACCATACCGGTTTTAGACGGAGTCACCTAGTGCAG”, for which the binding signal was 18600 fluorescence intensity (a.u.). The value for “AATAATTTCATATTACTGACACTTCTAAAACCCCAACCACCGGAGTCACCTAGTGCAG” was 12100 fluorescence intensity (a.u.).
